According to US8530520B2, “Cycloalkyl-dione derivatives and methods of their use” (The Trustees Of The University Of Pennsylvania, priority 2011, dated 2013):

These compounds were tested against T1, mouse TP receptor (Mus musculus, UniProt P30987) (assay: TP receptor binding, scintillation proximity assay (3H-SQ29,548)). Conditions: not given.
T1 sequence (P30987 1-341): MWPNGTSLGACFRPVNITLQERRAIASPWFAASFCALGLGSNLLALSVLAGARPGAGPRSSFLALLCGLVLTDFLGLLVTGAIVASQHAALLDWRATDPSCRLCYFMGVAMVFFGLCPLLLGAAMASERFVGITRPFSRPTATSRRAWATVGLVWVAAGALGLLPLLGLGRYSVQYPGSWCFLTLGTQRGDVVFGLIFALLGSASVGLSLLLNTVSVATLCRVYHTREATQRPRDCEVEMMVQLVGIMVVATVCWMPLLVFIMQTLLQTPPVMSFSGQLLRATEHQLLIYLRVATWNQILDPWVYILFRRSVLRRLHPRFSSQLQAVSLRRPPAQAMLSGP
Design: expressed in transfected cells
Text: Radioligand Binding Assay. […] Data is presented as percent total binding, with total binding calculated from a minimum of three wells containing membrane, beads, and ^3H-SQ29,548 without antagonist.

Row | Structure (SMILES) | IC50
1 | O=C(O)CCc1cccc(CCNS(=O)(=O)c2ccc(Cl)cc2)c1 [Compound 12, reference compound] | 26 nM

Same assay, conditions: membranes of QBI-HEK 293A cells expressing mouse TP receptor; 20 nM 3H-SQ29,548; 2 hours at 25° C.; read-out: TP Receptor Binding Scintillation Proximity Assay Mouse TP

Row | Structure (SMILES) | IC50
2 | O=S(=O)(NCCc1cccc(CCCO)c1)c1ccc(Cl)cc1 [Compound 59] | > 10000 nM
3 | O=S(=O)(NCCc1cccc(CCc2nnn[nH]2)c1)c1ccc(Cl)cc1 [Compound 60] | 19 nM
4 | O=C1C=C(O)C(Cc2cccc(CCNS(=O)(=O)c3ccc(Cl)cc3)c2)C1 (stereo not shown) [Compound 41, 4-Chloro-N-(3-((2-hydroxy-4-oxocyclopent-2-en-1-yl)methyl)phenethyl)benzenesulfonamide] | 11 nM
5 | CC1=C(O)C(Cc2cccc(CCNS(=O)(=O)c3ccc(Cl)cc3)c2)CC1=O (stereo not shown) [Compound 42, 4-Chloro-N-(3-((2-hydroxy-3-methyl-4-oxocyclopent-2-en-1-yl)methyl)phenethyl)-benzenesulfonamide] | 26 nM
6 | O=c1c(O)c(NCc2cccc(CCNS(=O)(=O)c3ccc(Cl)cc3)c2)c1=O [Compound 61] | 17 nM
7 | O=C1CCC(O)=C1Cc1cccc(CCNS(=O)(=O)c2ccc(Cl)cc2)c1 [Compound 50, 4-Chloro-N-(3-((2-hydroxy-5-oxocyclopent-1-en-1-yl)methyl)phenethyl)benzenesulfonamide] | 1200 nM
